This note sets out measurements from paper PMC10575725.

Protein sequences, listed by entry. Tags and fused reporters are not part of them. Residues count along the entry.
UniProt Q96P20: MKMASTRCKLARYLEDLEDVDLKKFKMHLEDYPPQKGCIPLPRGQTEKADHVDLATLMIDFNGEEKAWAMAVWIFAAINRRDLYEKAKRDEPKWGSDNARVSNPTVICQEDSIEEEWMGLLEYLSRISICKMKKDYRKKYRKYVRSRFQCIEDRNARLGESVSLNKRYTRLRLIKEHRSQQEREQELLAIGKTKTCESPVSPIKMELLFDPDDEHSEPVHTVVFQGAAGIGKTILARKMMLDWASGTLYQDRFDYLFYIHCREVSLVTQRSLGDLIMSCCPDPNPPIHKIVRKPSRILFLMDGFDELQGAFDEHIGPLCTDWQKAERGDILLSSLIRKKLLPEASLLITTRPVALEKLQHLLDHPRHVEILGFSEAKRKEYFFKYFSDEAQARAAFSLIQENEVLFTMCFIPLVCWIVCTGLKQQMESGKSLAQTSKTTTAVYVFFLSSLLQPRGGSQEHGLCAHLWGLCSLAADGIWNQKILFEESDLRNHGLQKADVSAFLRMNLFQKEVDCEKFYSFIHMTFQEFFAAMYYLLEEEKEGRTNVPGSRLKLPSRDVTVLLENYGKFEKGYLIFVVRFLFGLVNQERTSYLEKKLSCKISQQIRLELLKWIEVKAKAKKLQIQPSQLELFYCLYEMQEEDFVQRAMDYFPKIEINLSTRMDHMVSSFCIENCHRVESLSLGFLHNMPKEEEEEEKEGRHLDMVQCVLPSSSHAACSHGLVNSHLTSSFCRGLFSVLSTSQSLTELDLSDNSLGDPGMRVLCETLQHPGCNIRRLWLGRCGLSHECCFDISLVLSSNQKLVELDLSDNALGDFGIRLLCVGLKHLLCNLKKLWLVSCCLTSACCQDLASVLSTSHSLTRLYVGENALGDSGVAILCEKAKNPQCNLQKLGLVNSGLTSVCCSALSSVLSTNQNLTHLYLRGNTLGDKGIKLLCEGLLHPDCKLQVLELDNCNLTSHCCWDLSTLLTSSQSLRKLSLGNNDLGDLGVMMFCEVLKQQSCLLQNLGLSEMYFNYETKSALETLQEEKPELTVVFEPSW
UniProt Q3UP24: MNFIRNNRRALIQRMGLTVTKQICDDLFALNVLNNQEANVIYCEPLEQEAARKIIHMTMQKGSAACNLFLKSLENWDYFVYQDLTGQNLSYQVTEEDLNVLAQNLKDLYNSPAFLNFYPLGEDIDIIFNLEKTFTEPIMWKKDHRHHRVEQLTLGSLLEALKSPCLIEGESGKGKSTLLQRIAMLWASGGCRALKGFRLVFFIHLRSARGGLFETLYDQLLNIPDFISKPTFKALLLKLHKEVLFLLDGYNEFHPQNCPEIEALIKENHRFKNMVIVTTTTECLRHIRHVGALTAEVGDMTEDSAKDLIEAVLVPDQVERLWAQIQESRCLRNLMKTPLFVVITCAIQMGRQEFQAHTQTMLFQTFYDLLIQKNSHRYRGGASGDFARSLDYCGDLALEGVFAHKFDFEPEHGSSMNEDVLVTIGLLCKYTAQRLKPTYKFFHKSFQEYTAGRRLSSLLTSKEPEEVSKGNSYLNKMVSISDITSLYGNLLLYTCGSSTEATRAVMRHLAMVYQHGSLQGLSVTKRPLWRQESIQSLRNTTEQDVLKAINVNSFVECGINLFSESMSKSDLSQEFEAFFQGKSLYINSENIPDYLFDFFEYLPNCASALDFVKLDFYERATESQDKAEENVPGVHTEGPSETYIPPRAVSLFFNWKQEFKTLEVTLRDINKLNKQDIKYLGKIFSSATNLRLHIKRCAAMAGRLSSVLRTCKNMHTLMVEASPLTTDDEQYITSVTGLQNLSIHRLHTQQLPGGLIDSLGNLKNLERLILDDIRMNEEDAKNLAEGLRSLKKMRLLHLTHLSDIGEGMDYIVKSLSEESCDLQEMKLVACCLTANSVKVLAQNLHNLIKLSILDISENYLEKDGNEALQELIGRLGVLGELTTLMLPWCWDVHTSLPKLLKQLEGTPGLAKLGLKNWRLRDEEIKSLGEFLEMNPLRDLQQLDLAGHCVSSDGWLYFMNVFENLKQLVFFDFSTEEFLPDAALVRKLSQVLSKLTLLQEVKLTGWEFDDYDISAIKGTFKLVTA
UniProt Q9ULZ3: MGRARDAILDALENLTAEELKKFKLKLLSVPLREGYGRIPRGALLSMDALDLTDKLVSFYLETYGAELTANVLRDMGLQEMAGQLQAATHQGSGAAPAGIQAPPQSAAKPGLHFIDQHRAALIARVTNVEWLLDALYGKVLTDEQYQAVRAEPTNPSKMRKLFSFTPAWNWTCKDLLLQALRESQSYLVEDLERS
UniProt P29466: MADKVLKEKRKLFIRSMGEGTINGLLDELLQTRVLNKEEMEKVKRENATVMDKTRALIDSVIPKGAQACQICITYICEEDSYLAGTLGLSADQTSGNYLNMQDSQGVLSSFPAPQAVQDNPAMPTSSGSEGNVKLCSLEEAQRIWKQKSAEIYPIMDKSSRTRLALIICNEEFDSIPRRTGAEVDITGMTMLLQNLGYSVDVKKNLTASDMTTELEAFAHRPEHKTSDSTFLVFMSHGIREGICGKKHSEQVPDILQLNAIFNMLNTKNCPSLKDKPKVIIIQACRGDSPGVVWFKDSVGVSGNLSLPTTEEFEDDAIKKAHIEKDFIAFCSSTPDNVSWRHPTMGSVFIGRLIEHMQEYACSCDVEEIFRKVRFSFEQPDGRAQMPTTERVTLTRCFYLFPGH
UniProt Q8TDX7: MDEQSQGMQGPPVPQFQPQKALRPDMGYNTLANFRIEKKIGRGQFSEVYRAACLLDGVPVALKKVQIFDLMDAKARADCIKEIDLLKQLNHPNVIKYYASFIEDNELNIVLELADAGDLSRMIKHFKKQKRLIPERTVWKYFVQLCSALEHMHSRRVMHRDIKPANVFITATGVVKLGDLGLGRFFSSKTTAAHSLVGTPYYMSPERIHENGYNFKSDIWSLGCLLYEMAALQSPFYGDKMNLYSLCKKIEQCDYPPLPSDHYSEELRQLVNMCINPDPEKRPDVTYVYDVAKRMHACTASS
UniProt Q9ES74: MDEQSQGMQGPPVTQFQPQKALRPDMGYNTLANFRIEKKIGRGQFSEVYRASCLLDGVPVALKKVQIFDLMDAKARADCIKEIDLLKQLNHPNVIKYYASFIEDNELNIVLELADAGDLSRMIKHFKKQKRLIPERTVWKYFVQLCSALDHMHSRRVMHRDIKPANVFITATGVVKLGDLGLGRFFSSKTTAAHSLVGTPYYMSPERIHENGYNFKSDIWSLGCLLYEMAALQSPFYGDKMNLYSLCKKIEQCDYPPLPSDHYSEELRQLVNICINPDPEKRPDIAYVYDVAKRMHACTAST
UniProt Q9Y4X5: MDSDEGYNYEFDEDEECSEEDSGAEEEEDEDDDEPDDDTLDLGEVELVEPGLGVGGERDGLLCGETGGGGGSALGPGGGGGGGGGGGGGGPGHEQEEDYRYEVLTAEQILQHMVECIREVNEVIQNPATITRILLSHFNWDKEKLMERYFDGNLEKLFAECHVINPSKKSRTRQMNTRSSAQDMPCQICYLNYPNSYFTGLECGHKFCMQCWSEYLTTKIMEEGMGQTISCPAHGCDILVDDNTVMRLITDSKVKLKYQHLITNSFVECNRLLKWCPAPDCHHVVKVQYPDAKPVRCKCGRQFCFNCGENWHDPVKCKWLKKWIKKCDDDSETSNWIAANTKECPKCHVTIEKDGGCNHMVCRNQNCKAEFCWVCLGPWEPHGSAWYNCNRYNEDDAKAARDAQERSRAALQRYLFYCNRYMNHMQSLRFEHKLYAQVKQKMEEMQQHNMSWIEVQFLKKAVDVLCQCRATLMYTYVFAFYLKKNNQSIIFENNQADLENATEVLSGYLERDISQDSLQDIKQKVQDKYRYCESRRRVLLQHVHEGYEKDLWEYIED
UniProt P05161, residues 1-157: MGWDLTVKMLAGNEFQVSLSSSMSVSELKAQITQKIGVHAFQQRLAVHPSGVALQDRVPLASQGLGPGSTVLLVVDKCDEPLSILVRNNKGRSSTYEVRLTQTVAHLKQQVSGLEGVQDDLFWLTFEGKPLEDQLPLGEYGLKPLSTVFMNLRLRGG
UniProt Q9NPP4: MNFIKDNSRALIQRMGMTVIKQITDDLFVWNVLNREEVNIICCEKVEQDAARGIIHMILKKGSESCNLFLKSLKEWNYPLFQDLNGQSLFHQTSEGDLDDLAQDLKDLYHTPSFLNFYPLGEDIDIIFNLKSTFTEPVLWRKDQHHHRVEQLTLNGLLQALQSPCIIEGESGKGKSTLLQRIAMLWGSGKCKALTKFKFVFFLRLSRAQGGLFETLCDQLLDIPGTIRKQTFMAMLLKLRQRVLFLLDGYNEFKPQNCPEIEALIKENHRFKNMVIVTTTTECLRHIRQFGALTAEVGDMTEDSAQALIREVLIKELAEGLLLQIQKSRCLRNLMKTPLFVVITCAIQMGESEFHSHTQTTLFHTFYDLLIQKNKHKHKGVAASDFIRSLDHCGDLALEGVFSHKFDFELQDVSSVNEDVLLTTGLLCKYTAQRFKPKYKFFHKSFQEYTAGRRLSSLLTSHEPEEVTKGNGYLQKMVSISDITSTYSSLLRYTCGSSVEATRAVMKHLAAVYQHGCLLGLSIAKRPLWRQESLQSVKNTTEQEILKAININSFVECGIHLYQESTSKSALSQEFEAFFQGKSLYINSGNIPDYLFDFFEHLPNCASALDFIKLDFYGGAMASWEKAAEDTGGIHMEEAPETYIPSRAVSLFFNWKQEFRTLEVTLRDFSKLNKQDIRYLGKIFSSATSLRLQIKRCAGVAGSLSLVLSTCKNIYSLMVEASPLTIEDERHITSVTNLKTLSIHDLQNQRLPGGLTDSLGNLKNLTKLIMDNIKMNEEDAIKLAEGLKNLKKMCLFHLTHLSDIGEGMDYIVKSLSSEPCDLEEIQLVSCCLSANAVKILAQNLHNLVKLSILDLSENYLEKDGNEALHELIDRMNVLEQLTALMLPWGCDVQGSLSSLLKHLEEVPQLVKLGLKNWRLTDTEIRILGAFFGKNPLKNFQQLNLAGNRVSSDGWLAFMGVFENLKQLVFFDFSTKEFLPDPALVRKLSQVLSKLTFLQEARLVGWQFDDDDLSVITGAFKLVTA

No constants are given. Whether binding was seen depends on the method and setting. Binding seen in cells or lysates may run through a third protein. For some of these results: Sequences can lack the tags named with a protein.

The target in experiment [1] is T1, HERC6 (HECT domain- and RCC1-like domain-containing protein 6), endogenous, mouse peritoneal macrophages (mouse (endogenous in peritoneal macrophages)) (UniProt F2Z461).
T1 sequence: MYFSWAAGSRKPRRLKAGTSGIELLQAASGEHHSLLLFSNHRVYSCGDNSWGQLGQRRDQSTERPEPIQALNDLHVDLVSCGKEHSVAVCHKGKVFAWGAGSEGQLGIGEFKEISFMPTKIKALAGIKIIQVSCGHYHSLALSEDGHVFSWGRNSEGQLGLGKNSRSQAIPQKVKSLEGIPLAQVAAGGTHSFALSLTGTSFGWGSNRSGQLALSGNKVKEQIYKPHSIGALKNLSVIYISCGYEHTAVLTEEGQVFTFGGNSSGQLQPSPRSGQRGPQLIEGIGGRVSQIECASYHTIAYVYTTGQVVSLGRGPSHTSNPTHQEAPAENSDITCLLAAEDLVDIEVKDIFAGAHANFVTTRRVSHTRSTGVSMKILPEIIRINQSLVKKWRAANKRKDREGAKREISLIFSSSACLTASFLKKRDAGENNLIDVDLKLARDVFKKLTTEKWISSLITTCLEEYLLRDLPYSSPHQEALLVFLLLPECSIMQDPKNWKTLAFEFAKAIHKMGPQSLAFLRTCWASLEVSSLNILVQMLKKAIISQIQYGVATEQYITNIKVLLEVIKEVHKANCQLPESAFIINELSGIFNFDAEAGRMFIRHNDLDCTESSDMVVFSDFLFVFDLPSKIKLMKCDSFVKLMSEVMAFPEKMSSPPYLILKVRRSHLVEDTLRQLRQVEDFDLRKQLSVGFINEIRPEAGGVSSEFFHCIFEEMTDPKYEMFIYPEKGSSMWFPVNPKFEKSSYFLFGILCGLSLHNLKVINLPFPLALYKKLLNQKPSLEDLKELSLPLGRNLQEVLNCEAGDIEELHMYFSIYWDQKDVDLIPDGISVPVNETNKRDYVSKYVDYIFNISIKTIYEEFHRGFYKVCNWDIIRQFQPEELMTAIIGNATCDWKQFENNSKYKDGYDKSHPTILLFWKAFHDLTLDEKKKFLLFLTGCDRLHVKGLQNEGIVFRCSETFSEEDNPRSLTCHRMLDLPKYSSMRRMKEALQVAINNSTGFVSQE
Description: co-IP; endogenous proteins in mouse peritoneal macrophages, LPS-stimulated or LPS-primed and ATP-activated; IP buffer 1.0% NP-40, 50 mM Tris-HCl pH 7.4, 50 mM EDTA, 150 mM NaCl.

For experiment [2], the target named is T2, HERC5, endogenous, THP-1 cells (human (endogenous in THP-1)) (UniProt Q9UII4).
T2 sequence: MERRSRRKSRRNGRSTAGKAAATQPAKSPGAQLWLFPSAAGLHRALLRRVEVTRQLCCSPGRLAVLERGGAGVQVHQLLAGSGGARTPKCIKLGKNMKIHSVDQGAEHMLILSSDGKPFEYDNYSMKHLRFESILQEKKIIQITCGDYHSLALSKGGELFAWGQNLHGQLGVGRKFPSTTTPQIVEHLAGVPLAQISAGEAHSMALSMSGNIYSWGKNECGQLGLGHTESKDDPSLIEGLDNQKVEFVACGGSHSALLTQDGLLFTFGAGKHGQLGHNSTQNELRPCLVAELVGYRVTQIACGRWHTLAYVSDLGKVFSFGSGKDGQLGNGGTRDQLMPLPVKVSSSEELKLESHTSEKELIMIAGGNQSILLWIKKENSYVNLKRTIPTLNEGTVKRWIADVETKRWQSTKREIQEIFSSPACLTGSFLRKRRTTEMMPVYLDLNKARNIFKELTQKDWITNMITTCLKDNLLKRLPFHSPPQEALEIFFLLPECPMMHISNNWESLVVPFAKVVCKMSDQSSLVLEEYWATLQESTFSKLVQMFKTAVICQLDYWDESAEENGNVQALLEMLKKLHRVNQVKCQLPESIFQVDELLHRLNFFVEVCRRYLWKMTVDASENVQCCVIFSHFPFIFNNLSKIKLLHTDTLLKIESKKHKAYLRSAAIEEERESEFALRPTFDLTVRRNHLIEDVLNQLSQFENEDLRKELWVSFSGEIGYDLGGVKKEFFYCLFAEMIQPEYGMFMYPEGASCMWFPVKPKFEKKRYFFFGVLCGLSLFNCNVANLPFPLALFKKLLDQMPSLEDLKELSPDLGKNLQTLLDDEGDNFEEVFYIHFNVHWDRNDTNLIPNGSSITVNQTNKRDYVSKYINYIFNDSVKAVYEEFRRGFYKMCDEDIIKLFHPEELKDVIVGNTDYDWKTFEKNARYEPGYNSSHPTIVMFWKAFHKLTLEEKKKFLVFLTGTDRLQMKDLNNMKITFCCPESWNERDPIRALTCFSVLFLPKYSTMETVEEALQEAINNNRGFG
Put plainly: co-IP; endogenous proteins in THP-1 cells, LPS-stimulated or LPS-primed and ATP-activated; IP buffer 1.0% NP-40, 50 mM Tris-HCl pH 7.4, 50 mM EDTA, 150 mM NaCl.

The target of experiment [3] is T3, FLAG-tagged human HERC5 (human) (UniProt Q9UII4).
T3 sequence: T2 sequence
Description: co-IP; HEK293T cells transfected with the indicated plasmids; IP buffer 1.0% NP-40, 50 mM Tris-HCl pH 7.4, 50 mM EDTA, 150 mM NaCl; protein G agarose with specific antibodies overnight.

Experiment [4] has as its target Myc-tagged human NLRP3 (human) (UniProt Q96P20). Described as above.

With “NLRC4, endogenous, mouse peritoneal macrophages (from UniProt Q3UP24 1-1024)”, the binding result in experiment [1] is on record as “no binding”.
“ASC, endogenous, THP-1 cells (from UniProt Q9ULZ3 1-195)”: the binding result in experiment [2] is recorded as “no binding”.
Consider “CASP1, endogenous, THP-1 cells (from UniProt P29466 1-404) (enzyme)”, for which, in experiment [2], the binding entry was “no binding”.
With “NEK7, endogenous, THP-1 cells (from UniProt Q8TDX7 1-302) (enzyme)”, the binding result in experiment [2] is listed as “no binding”.
Regarding “HA-tagged human caspase-1 (from UniProt P29466 1-404) (enzyme)”, the binding entry in experiment [3] is “no binding”.
As to “NEK7, endogenous, mouse peritoneal macrophages (from UniProt Q9ES74 1-302) (enzyme)”, the binding entry in experiment [1] was “no binding”.
For “FLAG-tagged human ARIH1 (from UniProt Q9Y4X5 1-557) (enzyme)”, the binding result in experiment [4] is recorded as “no binding”.
Take “HA-tagged human ISG15 (from UniProt P05161 1-157)”: the binding entry in experiment [4] is “no binding”.
Turning to “NLRC4, endogenous, THP-1 cells (from UniProt Q9NPP4 1-1024)”, in experiment [2], the binding entry is “no binding”.
In the case of “Myc-tagged human ASC (from UniProt Q9ULZ3 1-195)”, the binding result in experiment [3] is reported as “no binding”.
